Data reported in PubChem BioAssay (NCI).
Where “and” joins values, the source holds several entries; their conditions need not be identical. Identical values can stand only once.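 All cell lines were grown in 96-well plates and treated with compound for 48 hours. GI50 is the concentration that inhibits growth by half. TGI marks complete inhibition of growth.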 Square brackets hold non-standard residues; d marks the D form. Peptide text beside a SMILES is read from it. * marks the point of attachment. ξ: configuration not given here. 4Abz = Nc1ccc(C(=O)O)cc1; ξL = CC(C)CC(N)C(=O)O; NHOH = ON*

Tested on: NCI-H322M lung
Test: NCI anticancer screen, dose series, 48 h

| Compound | TGI | GI50 |
| --- | --- | --- |
| CS(=O)(=O)c1nc(-c2cc3c(c(S(C)(=O)=O)n2)CCC3)cc2c1CCC2 | > 100 µM |  |
| O=C1/C=C(/c2ccc(O)cc2)[C@H](O)Cc2ccc(OC3OC(CO)C(O)C(O)C3O)cc2O1 (stereo partly specified) (tested in a mixture with another compound) | > 100 µM |  |
| Cc1ccc(NC(=O)C(=O)C2C(=O)C3=C(CC2(C)C)NC2C=CC=CC2S3)c(C)c1 (stereo unspecified) | > 100 µM |  |
| CS(=O)(=O)c1ccc(C2=C(c3ccccc3)C(=O)OC2)cc1 | > 100 µM |  |
| COc1cc(C(C)(C)C)c(OC(=O)/C=C/C(=O)O/C=C/[N+](=O)[O-])c(C(C)(C)C)c1 | > 100 µM |  |
| COC(=O)C(=O)C(C(=O)C(=O)Nc1ccc(Cl)cc1Cl)c1nc2ccc(Cl)cc2[nH]c1=O (stereo unspecified) | > 100 µM |  |
| O=C1c2cc(Br)ccc2-c2c1c1ccccc1c(=O)n2CCCCl | > 100 µM | 12.4 µM |
| COC(=O)c1ccc2n[se]nc2c1 | > 100 µM |  |
| COc1cc(/C=C/C(=O)OC[C@]23O[C@H]2[C@@H](OC2OC(C)C(O)C(O)C2O)C2C=CO[C@@H](OC4OC(CO)C(O)C(O)C4O)C23)ccc1O (stereo partly specified) | > 100 µM |  |
| CC(C)CC(NC(=O)[C@@H]1CCCN1C(=O)CNC(=O)c1ccc(N)cc1)C(=O)N[C@H](C)C(=O)NO (stereo partly specified) (H-[4Abz]GP[ξL][dA]-{NHOH}) | > 100 µM | > 100 µM |
| COc1ccc(/C=N/N=C(N)N)c(C(=O)O)c1OC | > 10 µM |  |
| O=C(O)C(=O)/C=C\c1ccc(Cl)cc1 | > 100 µM |  |
| O=C1C=Cc2cc3ccccc3c3cccc1c23 | 70 µM | 18 µM |
| COc1cc2[nH]c(=O)[nH]c2c2c(C)c[nH]c12 | > 100 µM |  |
| CC(C)CCC[C@@H](C)C1CCC2[C@@H]3CC=C4C[C@@H](OC(=O)CCC(=O)NCC[N+](C)(C)CCCS(=O)(=O)[O-])CC[C@]4(C)C3CC[C@@]21C (stereo partly specified) | 49.7 µM |  |
| O=c1[nH]nc(Nc2ccccc2)c2nnn(Cc3ccccc3)c12 | > 100 µM |  |
| O=C(O)CC(Cc1ccccc1)C(=O)O (stereo unspecified) | > 100 µM |  |
| CC1CN=C(c2ccc3c(c2)Cc2cc(C4=NCC(C)N4)ccc2-3)N1 (stereo unspecified) | 69.5 µM |  |
| C(=C/c1ccc2nc(-c3ccc(/C=C/C=N/NC4=NCCCN4)cc3)cn2c1)/C=N/NC1=NCCCN1 | 46 µM |  |
| O=C1/C(=C/c2ccc(F)cc2)CN(Cc2cn(CCNc3ccnc4cc(Cl)ccc34)nn2)C/C1=C\c1ccc(F)cc1 | 3.02 µM | 1.54 µM |
| Clc1ccc2nc3c(c(-c4ccccc4)nn3-c3ccccc3)c(-c3ccccc3)c2c1 | > 100 µM |  |
| C[N+](C)(C)CC(=O)NC(=O)N/N=C\C(CC#N)CN(Cc1ccccc1)Cc1ccccc1 (stereo unspecified) | > 100 µM |  |
| Cc1cc([C@H](C#N)c2nc3ccccc3s2)nc(Cl)n1 | > 100 µM |  |
| Nc1c2c(nc3ccccc13)-c1ccccc1CCC2 | 42.2 µM |  |
| c1cc(C2O[C@H]3CCCN3[C@@H]2c2ccncc2)ccn1 (stereo partly specified) | > 100 µM |  |

| Compound | TGI | GI50 |
| --- | --- | --- |
| O=C(CCCCCCCCC(=O)OCCCn1cc(C(=O)NC(=O)OCc2ccccc2)c(=O)[nH]c1=O)OCCCn1cc(C(=O)NC(=O)OCc2ccccc2)c(=O)[nH]c1=O | > 100 µM |  |
| COc1ccc(C2CC(c3cccc(Nc4ccnc5cc(Cl)ccc45)c3)=NN2c2ccccc2)cc1 (stereo unspecified) | 94.1 µM | 6.39 µM |
| NC(N)=Nc1nc2cc(N)ccc2o1 | > 100 µM |  |
| COc1ccc(-n2cc(-c3ccc(Cl)cc3)[nH]c2=S)cc1Cl | > 100 µM | 76.6 µM |
| O=C(OCc1ccccc1[N+](=O)[O-])N1c2ccccc2[C@@]23O[C@]24CCC[C@H]3C#C/C=C\C#C[C@H]14 | > 100 µM |  |
| Brc1ccc2c(c1)[C@H]1CCc3c([nH]c4ccccc34)[C@H]1N2 | 23.1 µM |  |
| CCOC(=O)n1c2ccccc2c2c(O)c(OC)c3c(c21)C(=O)NC3=O | > 100 µM |  |
| Nc1ccc(Cl)cc1.Nc1ccc(Cl)cc1.Nc1ccc(Cl)cc1.O=C([O-])C(=O)[O-].O=C([O-])C(=O)[O-].[H+].[Ru+5] | > 100 µM | > 100 µM |
| NCCCCN(CCCN)C(=O)OCc1ccccc1 | > 100 µM |  |
| COc1ccc(/C=N\N2C(=O)Cc3ccccc32)cc1 | > 100 µM |  |
| N#CC1=C(N)NC(=S)NC1c1ccc(-c2ccc(-c3nc4ccccc4s3)cc2)o1 (stereo unspecified) | > 50 µM | > 50 µM |
| C=CCn1c(-c2ccc(N=NNc3ccc(-c4n[nH]c(=S)n4CC=C)cc3)cc2)n[nH]c1=S | > 100 µM |  |
| c1ccc(C[P+]2(c3ccccc3)CCCCC2)cc1 | > 100 µM |  |
| CN1CCN(c2nc(C3=C(c4c[nH]c5ccccc45)C(=O)NC3=O)c3ccccc3n2)CC1 | 52.1 µM and 43.7 µM | 19.7 µM and 17.1 µM |
| CCOC(=O)C(C(N)=O)c1nc2cc([N+](=O)[O-])ccc2nc1/C=C(\O)c1ccc(C)cc1 (stereo unspecified) | > 100 µM |  |
| CC(=O)OCC1OC(n2c(-c3ccc(N)cc3)cc(-c3ccco3)c(C#N)c2=O)C(OC(C)=O)C(OC(C)=O)C1OC(C)=O (stereo unspecified) | > 50 µM |  |
| Nc1ncnc2c1ncn2C1OC(CO)C(O)C1O (stereo unspecified) | > 100 µM and > 450 µM and 65.8 µM |  |
| O=c1[nH]/c(=C/c2cccs2)c(=O)[nH]/c1=C/c1ccc(OCc2ccccc2)cn1 | > 100 µM |  |
| COC(=O)c1ccc2c(c1)CC1(C2)Cc2ccc3c(c2C1)CCC3 (stereo unspecified) | > 100 µM |  |
| Cc1cc(C)c(-c2noc(-c3ccc(Cl)cc3)c2C2=NCCN2)c(C)c1 | 96.9 µM |  |
| OCCOCn1nc(-c2ccccc2)nc1-c1cnccn1 | > 100 µM |  |
| Cc1cc(S(=O)(=O)Nc2nc(N)n(-c3ccccc3)n2)c(S)cc1Cl | > 100 µM |  |
| COc1ccc(NC(=O)c2cc(NC(=O)/C=C/c3ccccc3)c(OC)c(OC)c2)cc1 | > 100 µM |  |
| CCCCOP(=O)(OCCCC)C(NS(=O)(=O)c1ccccc1)(C(=O)OCC)C(F)(F)F (stereo unspecified) | > 100 µM |  |
| Oc1cccc(-c2cc(=S)ss2)c1 | 39 µM |  |

| Compound | TGI | GI50 |
| --- | --- | --- |
| COC(=O)C1=C(O)C(C(=O)OC)[C@@]2(O)[C@@H](C(=O)OC)C(c3ccccc3C(F)(F)F)C[C@@H]1[C@@H]2C(=O)OC (stereo partly specified) | 25.5 µM | 12.8 µM |
| CCCCc1ccc(Nc2nc(N)c3[nH]cnc3n2)cc1 | 39.6 µM |  |
| NC(=O)c1ncn(C2CCC(CP(=O)(O)O)C2)c1N (stereo unspecified) | > 100 µM |  |
| CC([C@H]1CCC2C3CCC4C(=O)C(NC=O)=CC[C@]4(C)C3CC[C@@]21C)N(C)C (stereo partly specified) | 14.3 µM | 3.52 µM |
| N#CC1=C(N)Oc2c(sc3c(F)cccc23)C1c1ccc(Cl)cc1 (stereo unspecified) | 23.2 µM | 4.22 µM |
| COC(=O)C1=C(SC)SC2(C(=O)OC)C3C=C(C)C4C(N13)C42C(=O)OC (stereo unspecified) | > 100 µM |  |
| NC(=O)c1ccc(N)nc1 | > 400 µM |  |
| CC1=NN(C(=O)CC(=O)Nc2ccccc2)C(=O)C1N=Nc1ccc(S(N)(=O)=O)cc1 (stereo unspecified) | > 100 µM |  |
| COc1ccc(/C(C#N)=C/c2nc3c(N4CCOCC4)nc(Cl)nc3n2C)cc1OC | 14.2 µM | 0.0102 µM |
| N#CC1(Cc2ccccc2Cl)c2ccccc2C=CN1C(=O)c1ccccc1 (stereo unspecified) | > 100 µM |  |
| COc1cc(OC)c(Oc2cccc(OC)c2OC)c(OC)c1 | > 100 µM |  |
| COC(=O)CC[C@@H](NC(=O)C(C)NC(=O)COC1C(O)C(COC(=O)CCCCCCCCCCNC(=O)c2ccc([N+](=O)[O-])c3[nH]c4cc(Br)ccc4c(=O)c23)OC(OCc2ccccc2)C1NC(C)=O)C(N)=O (stereo partly specified) | > 100 µM |  |
| COc1ccc(/C=C/C=C2C(=O)NC(=S)NC2=O)cc1 | 47 µM |  |
| CN1CCN(c2nc(NCCNc3ccnc4cc(Cl)ccc34)c3ccccc3n2)CC1 | 11.6 µM | 2.97 µM |
| COC12OC3(C4OC41)C(C(=O)O[C@H]3CO[Si](C)(C)C(C)(C)C)C2S(=O)(=O)c1ccccc1 (stereo partly specified) | > 8.59 µM |  |
| COc1cc(CNc2nc3cc(C(F)(F)F)ccc3nc2C(=O)O)cc(OC)c1OC | 64 µM |  |
| CN(C)c1ccc(C(=C2C=CC(=[N+](C)C)C=C2)c2c(O)c(S(=O)(=O)[O-])cc3cc(S(=O)(=O)O)ccc23)cc1 | > 100 µM |  |
| CCC(C)CNC1=C(NC(C)=O)C(=O)c2ccccc2C1=O (stereo unspecified) | > 100 µM |  |
| COc1cc(C=C2C(=O)OC(C)(C)OC2=O)cc(OC)c1OC | > 100 µM |  |
| COC(=O)c1ccc2c(c1)[n+](=O)c(C(C)=O)c(C(F)(F)F)n2[O-] | 13.7 µM | 4.28 µM |
| Cc1cc(C)cc(NC(=O)CCC(=O)C2CCC/C2=N\NC(=O)C(=O)NN)c1 (stereo unspecified) | > 100 µM |  |
| CCOC(=O)C(NC(=O)Nc1ccccc1)(Nc1cccc(Cl)c1)C(F)(F)F (stereo unspecified) | > 100 µM |  |
| CC(C)=CCC[C@@H](C)c1c(O)c(O)c(C)c2nc3ccccc3nc12 | 10.6 µM |  |
| C=C1c2c(C)nn(-c3ccccc3)c2N(C)C23C[C@@H]1C1(C)c4c(C)nn(-c5ccccc5)c4N(C)C(C)(C[C@H]12)C3 (stereo partly specified) | > 100 µM | 33.8 µM |
| C/C(=N\NC(=S)N/N=C(\C)c1ccccn1)c1ccccn1 | > 100 µM |  |
